# From the supplement of paper PMC8047034
# Where a name gives a salt, the structure may show the parent alone. This is one part of the list. Single values are uncertain, as repeats are few or missing.
# Test system: Ov4Carbo
# Test: log2 surviving fraction (library drug vs vehicle, or drug + carboplatin vs carboplatin alone; relative to plate median); ovarian cancer lines: OVCAR4 is platinum-sensitive and Ov4Carbo platinum-resistant; higher = more cell survival
# Conditions: library drug concentration 10 µM; 7 days; carboplatin co-treatment 0 µM
row,SMILES,log2 surviving fraction
1,C=C[C@]1(C)C[C@@H](OC(=O)CSC(C)(C)CNC(=O)[C@H](N)C(C)C)[C@]2(C)[C@H](C)CC[C@]3(CCC(=O)[C@H]32)[C@@H](C)[C@@H]1O [Valnemulin HCl],-2.52
2,O=C(c1ccccc1)c1ccc2n1CCC2C(=O)O (stereo not given) [Ketorolac (Toradol)],0.589
3,CC(C)(C)c1nc(-c2cccc(NS(=O)(=O)c3c(F)cccc3F)c2F)c(-c2ccnc(N)n2)s1,-2.51
4,CN1CCN2c3ccccc3Cc3ccccc3C2C1 (stereo not given) [Mianserin hydrochloride],0.0202
5,CC(C(=O)O)c1ccc2c(c1)CC(=O)c1ccccc1S2 (stereo not given) [Zaltoprofen],-0.0721
6,Nc1ccn([C@H]2CC[C@@H](CO)O2)c(=O)n1 [Zalcitabine],-0.776
7,CC[C@@H](C(N)=O)N1CCCC1=O [Levetiracetam],0.568
8,Cc1cn([C@H]2C=C[C@@H](CO)O2)c(=O)[nH]c1=O [Stavudine],0.396
9,CNC[C@H](O)c1ccc(O)c(O)c1 [Epinephrine bitartrate (Adrenalinium)],-0.159
10,CCN(CC)CCNC(C(=O)OCCC(C)C)c1ccccc1 (stereo not given) [Camylofin Chlorhydrate],-0.044
11,CN1C(CCl)Nc2cc(Cl)c(S(N)(=O)=O)cc2S1(=O)=O (stereo not given) [Methyclothiazide],0.519
12,CN1C[C@@H]2C[C@H]1CN2c1cc2c(cc1F)c(=O)c(C(=O)O)cn2C1CC1 [Danofloxacin Mesylate],0.485
13,CCCCC(CC)CNC(=N)NC(=N)NCCCCCCNC(=N)NC(=N)NCC(CC)CCCC (stereo not given) [Alexidine HCl],-8.36
14,"CO[C@H]1/C=C/O[C@@]2(C)Oc3c(C)c(O)c4c(O)c(c(/C=N/N5CCN(C)CC5)c(O)c4c3C2=O)NC(=O)/C(C)=C\C=C\[C@H](C)[C@H](O)[C@@H](C)[C@@H](O)[C@@H](C)[C@H](OC(C)=O)[C@@H]1C [Rifampin (Rifadin, Rimactane)]",0.267
15,CC[C@H]1CN2CCc3cc(OC)c(OC)cc3[C@@H]2C[C@@H]1C[C@H]1NCCc2cc(OC)c(OC)cc21 [Emetine],-8.47
16,COC(=O)CCc1ccc(OCC(O)CNC(C)C)cc1 (stereo not given) [Esmolol HCl],0.422
17,O=C(Nc1ccccc1)c1ccccc1O [Salicylanilide],-0.315
18,CC(C)OC(=O)OCOP(=O)(CO[C@H](C)Cn1cnc2c(N)ncnc21)OCOC(=O)OC(C)C [Tenofovir Disoproxil Fumarate],0.0568
19,CN(C)C(=O)Oc1ccc[n+](C)c1 [Pyridostigmine Bromide (Mestinon)],0.311
20,N=C(N)NS(=O)(=O)c1ccc(N)cc1 [Sulfaguanidine],-0.367

row,SMILES,log2 surviving fraction
1,Cc1cc(N)c2ccccc2[n+]1CCCCCCCCCC[n+]1c(C)cc(N)c2ccccc21 [Dequalinium chloride],-7.01
2,c1ccc2c(c1)sc1ccccc12 [Dibenzothiophene],-0.645
3,CC1(C)O[C@@H]2C[C@H]3[C@@H]4CCC5=CC(=O)C=C[C@]5(C)[C@@]4(F)[C@@H](O)C[C@]3(C)[C@]2(C(=O)CO)O1 [Triamcinolone Acetonide],0.283
4,CCOC(=O)C1=C[C@@H](OC(CC)CC)[C@H](NC(C)=O)[C@@H](N)C1 [Oseltamivir phosphate (Tamiflu)],0.352
5,CC(C)NCC(O)COc1cccc2[nH]ccc12 (stereo not given) [Pindolol],0.0881
6,CCOC(=O)c1c(CSc2ccccc2)n(C)c2cc(Br)c(O)c(CN(C)C)c12 [Arbidol HCl],-0.671
7,CC1COc2c(N3CCN(C)CC3)c(F)cc3c(=O)c(C(=O)O)cn1c23 (stereo not given) [Ofloxacin (Floxin)],0.404
8,COc1cc(OC)c(C(=O)CCCN2CCCC2)c(OC)c1 [Buflomedil HCl],0.0152
9,CC[N+]1(C)CCCC(OC(=O)C(O)(c2ccccc2)c2ccccc2)C1 (stereo not given) [Pipenzolate Bromide],0.78
10,CC[C@@H]1C(=O)OC[C@@H]1Cc1cncn1C [Pilocarpine HCl],1.37
11,CCC(C)(C)C(=O)O[C@H]1C[C@@H](C)C=C2C=C[C@H](C)[C@H](CC[C@@H]3C[C@@H](O)CC(=O)O3)[C@H]21 [Simvastatin (Zocor)],-3.22
12,C[C@@H](O[C@H]1OCCN(Cc2nn(P(=O)(O)O)c(=O)[nH]2)[C@H]1c1ccc(F)cc1)c1cc(C(F)(F)F)cc(C(F)(F)F)c1 [Fosaprepitant dimeglumine],-2.11
13,CCCCCN(C)CCC(O)(P(=O)(O)O)P(=O)(O)O [Ibandronate sodium],-6.31
14,CCOC(=O)[C@H](CCc1ccccc1)N[C@@H](C)C(=O)N1Cc2ccccc2C[C@H]1C(=O)O [Quinapril HCl (Accupril)],0.505
15,O=C1NCC2(CCN(CCc3ccccc3)CC2)O1 [Fenspiride HCl],0.848
16,CN[C@@H]1[C@H](O)[C@H](NC)[C@H]2O[C@@]3(O)C(=O)C[C@@H](C)O[C@H]3O[C@@H]2[C@H]1O [Spectinomycin  hydrochloride],0.861
17,CN(C)[C@@H](CCOc1cccc2ccccc12)c1ccccc1 [Dapoxetine hydrochloride (Priligy)],-0.337
18,CN(C)C(=O)Oc1cccc([N+](C)(C)C)c1 [Neostigmine bromide (Prostigmin)],-0.0207
19,C[C@]12CC[C@@H]3c4ccc(O)cc4CC[C@H]3[C@@H]1CCC2=O [Estrone],-0.496
20,C=C(c1ccc(C(=O)O)cc1)c1cc2c(cc1C)C(C)(C)CCC2(C)C [Bexarotene],-0.532
